Measurements taken from PubChem BioAssay AID1460 (National Center for Advancing Translational Sciences (NCATS), 2008).
In all, about 270,000 compounds went through this assay and about 5,800 (2.1%) were called active. This list was built around the results that the source calls inconclusive (neither active nor inactive); the mix of calls is not that of the screen. The call rests on the fitted dose curve; in most records, active means well fitted inhibition curve with a large enough effect; inconclusive means small, poorly fitted or top-dose-only effect; inactive means flat fitted curve, though single readings scatter. A potency beside an inconclusive call is a rough fit, not a confirmed value.

target: Microtubule-associated protein tau (Homo sapiens) (UniProt P10636); test: qHTS for Inhibitors of Tau Fibril Formation, Thioflavin T Binding; conditions: recombinant tau K18 P301L (four-repeat tau fragment), heparin-induced fibrillization, ThT fluorescence; series mostly up to 57.4 µM; activity, negative = inhibition: at the top concentration; further: nearly all actives have a fitted effect of over 55% in size
Chain of UniProt P10636 (P10636 whole entry, looked up, the tested form may be a part): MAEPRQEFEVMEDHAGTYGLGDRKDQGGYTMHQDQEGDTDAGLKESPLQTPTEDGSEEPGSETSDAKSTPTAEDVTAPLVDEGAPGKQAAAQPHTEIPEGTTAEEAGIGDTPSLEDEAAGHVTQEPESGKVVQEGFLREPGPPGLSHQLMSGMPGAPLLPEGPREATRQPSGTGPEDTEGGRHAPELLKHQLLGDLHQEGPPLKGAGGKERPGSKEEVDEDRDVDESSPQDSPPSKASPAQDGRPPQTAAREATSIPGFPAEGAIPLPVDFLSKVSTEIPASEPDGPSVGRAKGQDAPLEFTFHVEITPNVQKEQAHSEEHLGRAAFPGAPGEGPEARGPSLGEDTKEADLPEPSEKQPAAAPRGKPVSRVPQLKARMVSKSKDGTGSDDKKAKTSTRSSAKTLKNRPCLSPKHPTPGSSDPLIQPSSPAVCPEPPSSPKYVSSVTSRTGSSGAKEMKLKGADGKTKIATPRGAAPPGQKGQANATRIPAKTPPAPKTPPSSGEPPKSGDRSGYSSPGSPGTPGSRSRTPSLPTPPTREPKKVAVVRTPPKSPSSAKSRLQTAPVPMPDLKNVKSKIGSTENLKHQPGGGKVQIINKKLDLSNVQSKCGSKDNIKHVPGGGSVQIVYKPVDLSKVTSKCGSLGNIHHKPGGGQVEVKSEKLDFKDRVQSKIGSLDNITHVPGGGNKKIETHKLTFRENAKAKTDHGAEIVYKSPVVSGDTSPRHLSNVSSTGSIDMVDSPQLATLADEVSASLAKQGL
Description: NIH Molecular Libraries Probe Production Network [MLPCN]
NIH Chemical Genomics Center [NCGC]
Assay Provider: Carlo Ballatore, University of Pennsylvania
The microtubule-associated protein tau is an abundant protein in the axons of neurons that stabilizes microtubules. With its ability to modulate microtubule dynamics, tau contributes directly or indirectly, to key structural and regulatory cellular functions. Particularly important is the influence tau exerts on axonal transport, which allows signaling molecules, trophic factors and other essential cellular constituents to travel along the axons. Under pathological conditions, tau becomes sequestered into insoluble aggregates called neurofibrillary tangles. This phenomenon is believed to have pathological consequences by promoting axonal transport deficits that ultimately lead to synaptic dysfunction and neuronal loss. To identify inhibitors of tau aggregation, a heparin-induced tau fibril formation assay was used that employed a recombinantly expressed fragment of tau, K18 (Q242-E372), bearing a P301L mutation (Gustke et al. 1994; Hong et al. 1998). This assay monitors tau fibrillization by Thioflavin T (ThT) fluorescence.
Gustke, N., B. Trinczek, et al. (1994). "Domains of tau protein and interactions with microtubules." Biochemistry 33(32): 9511-22.
Hong, M., V. Zhukareva, et al. (1998).
Li, W. and V. M. Lee (2006).
von Bergen, M., S. Barghorn, et al. (2001). "Mutations of tau protein in frontotemporal dementia promote aggregation of paired helical filaments by enhancing local beta-structure." J Biol Chem 276(51): 48165-74.
NCGC Assay Protocol Summary:
For screening, 2 uL/well human K18 P301L (15 uM unlabeled and 0.24 uM Alexa 594-labeled tau, final concentrations) in reagent buffer (100 mM sodium acetate pH 7) was dispensed into black solid 1536-well plates (Grenier) using a solenoid-based dispenser. Following transfer of 23 nL compound or DMSO vehicle by a pin tool, 2 uL/well heparin (20 uM final concentration) in reagent buffer was added and the plate centrifuged 15 s at 1000 RPM. Plates were incubated 6 hr at 37 C and then 1 uL/well ThT (30 uM final concentration) was added. After a 1 hr ambient incubation, the plates were read by an Envision (Perkin Elmer) to monitor ThT fluorescence (450/8 nm excitation and 510/23 nm emission).
Keywords: NIH Roadmap, MLPCN, MLI, MLSMR, NCGC, qHTS, tau, tauopathies, Alzheimer's disease, fibril, neurodegeneration, aggregation
On the % scale 0 is the no-effect control and ±100 the full control effect; potency means the concentration at half of the fitted maximal effect; tags describe the fitted curve by direction and shape.

SMILES	Potency	activity, negative = inhibition
CCOc1ccc(-c2cc(OC(=O)c3ccc(F)cc3)c3c(C)oc(C)c3c(=O)c2)cc1	inconclusive: 31.6 µM [inhibitor, partial curve]	
COc1ccc(C(=O)/C=C/c2cn(CC(O)CN3CCN(C)CC3)c3ccccc23)cc1OC (centres undefined)	inconclusive: 11.2 µM [inhibitor, partial curve]	
COC(=O)N/N=C/c1ccc(OC(=O)/C=C/c2ccco2)cc1	inconclusive: 17.8 µM [inhibitor, partial curve]	
O=C(CC1Sc2ccc(C(F)(F)F)cc2NC1=O)Nc1ccc(Cl)c(C(F)(F)F)c1 (centres undefined)		inactive: -4.88%
COc1cc2c(cc1OC)C(C)=NCC2	inconclusive: 22.4 µM [inhibitor, single point]	
CCN1CCN(c2cc(C)c3cc(NC(=S)N4CCCC4)ccc3n2)CC1		inactive: -13%
Cc1c(Cl)cnc(NC(=O)COC(=O)CCC(=O)c2cccs2)c1Cl		inactive: -4.5%
COC(=O)C(C(=O)Nc1ccc(OC)cc1)C1CCCCCC1 (centres undefined)		inactive: 3.27%
Cc1ccc(CN2CCN(/N=C\C(Br)=C\c3ccccc3)CC2)cc1	inconclusive: 15.8 µM [inhibitor, partial curve]	
CCN(Cc1ccccc1)C(=O)c1cc(COc2c(F)cccc2F)on1	inconclusive: 39.8 µM [inhibitor, single point]	
CC(C)C(=O)N1CCN(c2nc(-c3ccccc3)c3c(c2C#N)CCCC3)CC1	inconclusive: 25.1 µM [inhibitor, partial curve]	
O=c1cc(Nc2ccc3c(c2)OCCO3)[nH]c(=O)n1Cc1ccc(F)cc1	inconclusive: 17.8 µM [inhibitor, partial curve]	
Oc1csc(Cc2nc(-c3ccc(Br)cc3)cs2)n1	inconclusive: 4.47 µM [inhibitor, full curve]	
O=C(CSc1nnc2c3ccccc3c3ccccc3c2n1)Nc1ccccc1	inconclusive: 12.6 µM [inhibitor, partial curve]	
COc1ccc(N(C(=O)CNS(=O)(=O)c2ccccc2)C(C(=O)NCc2ccco2)C(C)C)cc1 (centres undefined)		inactive: 2.22%
CC1Cc2ccccc2N1C(=O)CSc1nnc2c(n1)[nH]c1ccccc12 (centres undefined)	inconclusive: 17.8 µM [inhibitor, partial curve]	
COc1ccccc1-c1noc(-c2ccc(N3CCC(C)CC3)c([N+](=O)[O-])c2)n1		inactive: -1.89%
Nc1nc(Nc2cccc(Cl)c2)nc(NCc2ccco2)c1[N+](=O)[O-]	inconclusive: 14.1 µM [inhibitor, partial curve]	
Cc1nc2oc(C(=O)c3ccc(Br)cc3)c(N)c2c2c1COC(C)(C)C2	inconclusive: 3.16 µM [inhibitor, partial curve]	
